Test results from PMC6919601, “Identification of Plasmodium dipeptidyl aminopeptidase allosteric inhibitors by high throughput screening” (PLoS ONE, 2019).
The campaign covered roughly 110,000 compounds. About 230 (0.21%) showed an effect of 50% or more. The list shows a part of the results.

These molecules were tested against DPAP1 (Plasmodium falciparum, UniProt Q8IIJ9) (assay: primary screen, percent inhibition; read by cleavage of a fluorogenic dipeptide substrate; higher = more effect of the substance).
Set-up: species or system P. falciparum D10 trophozoite lysates; single well
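Note: 30 min substrate incubation versus DMSO and 10 µM JCP410 controls.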

DPAP1, sequence (Q8IIJ9 whole entry, looked up): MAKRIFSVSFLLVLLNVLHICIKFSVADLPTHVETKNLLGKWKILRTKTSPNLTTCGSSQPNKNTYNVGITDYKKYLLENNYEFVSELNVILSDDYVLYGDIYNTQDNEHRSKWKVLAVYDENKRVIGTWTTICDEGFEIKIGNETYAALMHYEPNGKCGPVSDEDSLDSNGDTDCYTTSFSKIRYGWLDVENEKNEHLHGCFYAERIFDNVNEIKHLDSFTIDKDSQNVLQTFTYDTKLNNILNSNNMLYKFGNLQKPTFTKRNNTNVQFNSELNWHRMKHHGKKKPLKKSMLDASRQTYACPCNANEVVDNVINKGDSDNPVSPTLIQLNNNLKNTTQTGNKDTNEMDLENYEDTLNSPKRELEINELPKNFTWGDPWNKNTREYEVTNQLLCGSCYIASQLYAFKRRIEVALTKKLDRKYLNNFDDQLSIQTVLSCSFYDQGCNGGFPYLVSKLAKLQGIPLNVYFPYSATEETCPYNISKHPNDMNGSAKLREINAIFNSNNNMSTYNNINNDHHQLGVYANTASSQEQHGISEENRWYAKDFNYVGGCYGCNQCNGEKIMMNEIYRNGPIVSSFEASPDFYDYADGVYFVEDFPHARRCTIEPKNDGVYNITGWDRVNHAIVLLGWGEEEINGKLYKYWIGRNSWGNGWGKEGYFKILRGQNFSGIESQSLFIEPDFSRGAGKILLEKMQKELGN

Point of comparison: `Cc1cc(C)c(OCC(O)CN2CCN(Cc3ccc4c(c3)OCO4)CC2)c(C)c1` (stereo not shown), “% Inhibition @ 10 uM” value -7.09%. Against it:
- N#CC1=C(O)Oc2ccc(N)cc2C1c1ccccc1 (stereo not shown) — higher, 2.45%
- COC(=O)c1ccc2nc(Nc3nc4ccc(F)cc4s3)sc2c1 — higher, -3.09%
- CC(Nc1nn2nnnc2c2ccccc12)c1ccccc1 (stereo not shown) — higher, -0.739%
- COc1ccc(CNCc2ccc(C)cc2)cc1OC — lower, -11.9%
- CSc1ccc(C2C(C#N)=C(N)Oc3cc(N(C)C)ccc32)cc1 (stereo not shown) — higher, -2.21%
- COc1cc(C(=O)N(CCCN(C)C)c2nc3ccc(C)cc3s2)cc(OC)c1OC — higher, 7.44%
- Cc1ccc(C(=O)N/C(=C\c2ccco2)C(=O)N2CCN(c3ccccc3)CC2)cc1C — higher, -2.88%
- CC1C(C#N)=C(SCc2ccccc2)N=C2CC(C)(C)CC(O)=C21 (stereo not shown) — higher, 55.4%
- O=C(CS(=O)(=O)Cc1ccccc1)Nc1nc2ccccc2s1 — higher, -2.83%
- O=C(O)[C@H]1CCCC[C@H]1C(=O)Nc1ccc(S(=O)(=O)N2CCCC2)cc1 — higher, 3.92%
- O=C(Nc1nc(-c2ccc(Cl)cc2Cl)cs1)c1cccnc1 — higher, 2.03%
- CCCn1c2ccccc2n2c(C(=O)CC)c(-c3ccccc3)nc12 — higher, -6.88%
- OCCN1CCN(Cc2ccccc2C(F)(F)F)CC1 — higher, 1.83%
- Cn1c(-c2ccc(F)cc2)c[n+]2cc(Cl)ccc12 — higher, 1.02%
- CCOC(=O)Nc1ccc(S(=O)(=O)Nc2onc(C)c2C)cc1 — higher, -3.37%
- CC(=O)n1c2ccccc2c2[nH]c3c(c21)CCCC3 — higher, 1.24%
- O=C1C2C3C=CC(C3)C2C(=O)N1O (stereo not shown) — higher, -1.4%
- COc1ccc(N(CC(=O)NC2CCCC2)S(=O)(=O)c2ccc(NC(C)=O)cc2)cc1 — higher, 2.78%
- O=C(C1CCN(S(=O)(=O)c2ccc3nc(O)ccc3c2)CC1)N1CCCCCC1 — higher, -5.03%
- COc1ccc(NC(=O)Nc2ccc3c(c2)C(=O)OC3)cc1 — higher, -1.86%
- Cc1[nH]cnc1CN1CCN(c2ccc([N+](=O)[O-])cc2)CC1 — higher, -0.132%
- Cc1sc2ncnc(N3CCN(c4ccccc4F)CC3)c2c1C — higher, -0.941%
- COCCNC(=O)c1ccc(CN2CC(=O)N3CCCCC3C2=O)cc1 (stereo not shown) — higher, 4.19%
- CCN(CC)C(=O)/C(=C/c1ccccc1)NC(=O)c1ccc(Br)o1 — higher, 0.777%
- CCS(=O)(=O)c1nc(S(=O)(=O)c2ccc(Cl)cc2)c(N2CC(C)CC(C)C2)s1 (stereo not shown) — higher, 2.76%
- COCCCNC(=O)Nc1cnc2ccccc2c1O — higher, -1.07%
- CCCNC(=O)C(NS(=O)(=O)c1cccc2nsnc12)c1ccccc1 (stereo not shown) — higher, -3.23%
- COc1ccc(S(=O)(=O)c2c(SC)nn(Cc3ccc(C)cc3)c2N(C(C)=O)C(C)=O)cc1 — higher, -4.58%
- COC(=O)c1ccsc1NC(=O)CN1CCN(Cc2ccc3c(c2)OCO3)CC1 — higher, 0.895%
- CC(NC(=O)c1cc(S(=O)(=O)N2CCCCC2)c[nH]1)c1ccc2c(c1)OCCO2 (stereo not shown) — higher, 3.95%
- Cc1oc(-c2ccc(Cl)cc2)nc1CS(=O)CC(=O)NC1CCCCCC1 (stereo not shown) — higher, 2.37%
- Oc1c2nc3ccccc3c-2ncn1CCc1ccc(Cl)cc1 — higher, 1.64%
- CC1=C(CCN(CCO)CCO)C(C)(C)CCC1 — higher, 4.55%
- CCOc1ccc(-c2cc(NC(=O)c3sc4nc5n(c(=O)c4c3C)CCCCC5)on2)cc1 — higher, -4.42%
- O=C(Nc1cccc(Cl)c1)c1scc2c1OCCO2 — higher, 3.8%
- O=C(NCc1ccccc1)Nc1nnc(N2CCCCC2)s1 — higher, -4.68%
- Cc1ccccc1CNC(=O)Cn1ccc2cc(S(=O)(=O)N3CCC(C)CC3)ccc21 — higher, 3.47%
- CCOC(=O)N1CCC(NC(=O)c2ccc(CS(=O)c3ccc(Cl)cc3)o2)CC1 (stereo not shown) — higher, 0.458%
- COc1ccc(C)cc1-n1nnc(-c2nc(-c3ccccc3F)no2)c1N — higher, 4.48%
- CC(C)(C)Nc1nc(Nc2cccc([N+](=O)[O-])c2)nc(NC(C)(C)C)n1 — higher, 2.4%
- O=C(CCCS(=O)(=O)c1nc(-c2cccs2)cc(C(F)(F)F)n1)NC1CCCCC1 — higher, 23.4%
- N#Cc1nn(-c2ccccc2)nc1N1CCCCC1 — higher, -1.59%
- CC1=NOC(=O)/C1=C/c1ccccc1OCc1ccccc1Cl — higher, -2.14%
- O=C(CCCCCNc1nc(S)nc2ccccc12)NCc1ccc2c(c1)OCO2 — higher, 4.3%
- CCCCCn1ncc(OC)c(OC)c1=O — higher, 3.85%
- COc1ccc(-n2c(-c3ccccc3)cn3c4c(=O)n(C)c(=O)n(C)c4nc23)cc1OC — higher, -6.4%
- Cn1c2c(c(=O)n(C)c1=O)CN(CCCN1CCOCC1)CN2 — higher, 0.66%
- O=c1cc(CSCc2ccccc2)nc2sc3c(n12)CCCC3 — higher, 20.1%
- Cc1cc(C(=O)O)c(-c2ccccc2)o1 — higher, 0.392%
- O=C(Nc1nc(-c2ccc(Cl)cc2)cs1)c1ccc2c(c1)OCO2 — higher, -2.27%
- C/N=c1\c(NC(=O)c2cccs2)c(O)oc2ccccc12 — higher, -2.23%
- CCOc1ccccc1C1C2=C(O)CC(c3ccc(OC)cc3)CC2=Nc2ccccc2N1C(C)=O (stereo not shown) — higher, -2.8%
- CCc1ccc(C2CC(=O)NC(SCc3ccccc3)=C2C#N)cc1 (stereo not shown) — higher, 8.01%
- Cc1cc(C)n(-c2nc3cc(Cl)ccc3nc2NCc2ccccc2)n1 — higher, 8.64%
- CCNS(=O)(=O)c1ccc(NC(=O)c2ccc(Cn3cc(Br)cn3)o2)cc1 — higher, 1.8%
- CN1CCN(c2ccc3sc4ccccc4c(=O)c3c2)CC1 — higher, 0.823%
- CCOCCCNC(=O)c1cnn(-c2ccc(F)cc2F)c1C1CCN(C(=O)OC(C)(C)C)CC1 — higher, -1.98%
- CC(C)CS(=O)(=O)C1=NN2C(=N)/C(=C\c3ccc(Cl)cc3)C(=O)N=C2S1 — higher, 8.11%
- CCOCCOC(=O)C1=C(C)NC(=O)NC1c1ccccc1OCC (stereo not shown) — higher, 26.5%
- CC(C)C[C@H](NC(=O)OCc1cccc(C(F)(F)F)c1)C(=O)NCC#N — higher, -1.41%
- Cc1nc(Nc2nc(O)c3c(n2)CCCC3)nc2ccccc12 — higher, -1.6%
- COc1ccc(C2C=C(c3ccc(C)c(C)c3)Nc3nnnn32)c(OC)c1OC (stereo not shown) — higher, 1.86%
- Cc1nc2cc(C(=O)O)ccc2[nH]1 — higher, -6.62%
- CN(Cc1ccccc1)C(=O)C1CCN(S(=O)(=O)c2cc(Cl)ccc2Cl)CC1 — higher, 2.39%
- CCn1c(O)c(C2=NCCC2)c2ccccc21 — higher, -6.83%
- Cc1cccc(OCC(=O)Nc2ccc(S(=O)(=O)N3CCCCC3)cc2)c1 — higher, 10.3%
- CCN(CC)c1ccc(NC(C)=O)c(C)c1 — higher, 6.18%
- Cc1ccccc1-c1nnc(CN2CCC3(CC2)OCCO3)o1 — higher, -2.23%
- O=C(Nc1ccc(Cl)cc1C(=O)NCc1ccco1)c1ccco1 — higher, -2.17%
- OCC1CCCN1C/C=C/c1ccccc1 (stereo not shown) — higher, -1.78%
- N=C(NOC(=O)Cc1ccc(Cl)cc1)c1ccccn1 — higher, 3.72%
- O=C1C2C3CCC(O3)C2C(=O)N1c1cc([N+](=O)[O-])ccc1O (stereo not shown) — higher, -6.52%
- COc1cc(CN2CCN(Cc3ccc(Cl)cc3)CC2)cc(OC)c1OC — lower, -21.2%
- CCOC(=O)N1CCc2[nH]c3ccc(Cl)cc3c2C1 — lower, -7.5%
- CCCN(CCC)C(=O)CS(=O)(=O)Cc1nc(-c2cccc(OC)c2)oc1C — higher, -1.89%
- CCOc1ccccc1CNC(=O)c1ccc(CS(=O)Cc2ccc(Cl)cc2)o1 (stereo not shown) — higher, -4.21%
- CC1(C)CC(=O)C(/C=N/CCc2ccc(S(N)(=O)=O)cc2)=C(O)C1 — higher, 7.63%
- CN(C)c1ccc(NC(=O)CCCC(=O)Nc2ccc(N(C)C)cc2)cc1 — higher, 2.32%
- CCCC(=O)c1ccc(N2CCN(C(=O)c3ccc(F)c(F)c3)CC2)c(F)c1 — higher, -1.38%
- CCN1CCN(CCCNC(=O)c2ccc3nc(/C=C(\O)c4ccc(OC)cc4)c(O)nc3c2)CC1 — higher, 8.63%
- CCOc1ccc(CNCC2CCCO2)cc1 (stereo not shown) — higher, -1.59%
- Cc1n[nH]c(C)c1CCCCOc1ccc(Br)cc1 — higher, 4.54%
- COC(=O)c1c(SC)nc2ccsc2c1O — higher, 7.25%
- CN(C(=O)Cn1ncc2c(=O)oc3ccccc3c21)C1CCCCC1 — higher, 2.39%
- Cc1ccc(Sc2ccc(/C=C3\C(=N)N4N=C(S(C)(=O)=O)SC4=NC3=O)o2)cc1 — higher, -3.39%
- O=C(Nc1ccccc1)c1ccc(N2C(=O)C3CC=CCC3C2=O)cc1 (stereo not shown) — higher, -1.88%
- CC(C)NC(=O)c1nnc(Cc2ccc(Cl)cc2Cl)o1 — higher, 0.454%
- CCOc1ccc(/C=C/c2nc(C#N)c(NCC3CCCO3)o2)cc1 (stereo not shown) — higher, -4.39%
- CCn1ncc(C(=O)Nc2ccccc2C)c1C — higher, -0.48%
- CCOc1ccc2oc(=O)cc(Cn3c(=O)cc(-c4ccccc4)c4c(C)nn(C)c43)c2c1 — higher, 3.47%
- O=C(Nc1ccc(S(=O)(=O)N2CCc3ccccc32)cc1)c1ccccc1Cl — higher, -2.3%
- COc1ccc(CCN2CNc3c(-c4cccc(Cl)c4)c(C)nn3C2)cc1OC — higher, 0.66%
- CCCCc1ccc(NS(=O)(=O)c2c(C)cc(C)cc2C)cc1 — higher, -3.15%
- O=C(Cn1cccc1C(=O)c1ccccc1)NCc1cccs1 — higher, -2.25%
- NS(=O)(=O)c1cccc(Nc2nc3ccccc3nc2NS(=O)(=O)c2ccc(Br)cc2)c1 — higher, 5.42%
- O=[N+]([O-])c1ccc(NC(c2ccccc2)c2ccc3cccnc3c2O)cc1 (stereo not shown) — higher, -2.59%
- Cc1cc(C)c(OCC(=O)N(Cc2ccc(C)o2)C2CCS(=O)(=O)C2)c(C)c1 (stereo not shown) — higher, -1.11%
- O=C(Nc1ccc(Br)cc1F)C1CCN(S(=O)(=O)c2ccc(F)cc2)CC1 — higher, 2.17%
- COc1ccccc1C1C2=C(O)CC(C)(C)CC2=NC2=C1C(=O)CC(C)(C)C2 (stereo not shown) — higher, -4.67%
